Measurements taken from the supplement of paper PMC3334620.
Whole data set: some 33,000 sequences, median “E-score (-0.5 to 0.5)” near -0.012, cut for the highest 2% near 0.27. This is one part of the list.

Molecular target: T1, Vhr1 (UniProt P40522)
T1 sequence: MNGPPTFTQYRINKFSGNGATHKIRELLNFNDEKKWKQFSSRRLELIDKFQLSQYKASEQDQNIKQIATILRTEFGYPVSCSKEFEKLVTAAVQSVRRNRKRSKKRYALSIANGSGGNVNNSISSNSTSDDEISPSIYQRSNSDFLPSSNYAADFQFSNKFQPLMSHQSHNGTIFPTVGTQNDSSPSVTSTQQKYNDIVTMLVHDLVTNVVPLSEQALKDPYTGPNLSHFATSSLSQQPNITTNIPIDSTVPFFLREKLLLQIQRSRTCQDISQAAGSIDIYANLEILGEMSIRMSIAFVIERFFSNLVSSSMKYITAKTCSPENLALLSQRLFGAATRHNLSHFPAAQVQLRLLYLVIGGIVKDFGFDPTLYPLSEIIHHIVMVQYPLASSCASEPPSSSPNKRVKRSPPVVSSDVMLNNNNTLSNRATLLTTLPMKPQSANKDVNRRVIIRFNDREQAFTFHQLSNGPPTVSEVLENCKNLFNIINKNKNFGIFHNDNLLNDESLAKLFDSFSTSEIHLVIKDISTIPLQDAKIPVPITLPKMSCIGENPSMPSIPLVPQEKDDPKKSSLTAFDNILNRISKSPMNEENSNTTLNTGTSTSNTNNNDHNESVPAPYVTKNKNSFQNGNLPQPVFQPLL
Experiment: PBM E-score (8-mer binding enrichment) (E-score (-0.5 to 0.5)); higher = stronger / more preferred TF binding; most listed sequences are background and not binding sites
Conditions: protein concentration: 200 nM; construct: GST-full length
Outline: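 E-scores (a modified Wilcoxon-Mann-Whitney statistic) were assigned by the Universal PBM Analysis Suite to every ungapped eight-base word pooled with its reverse complement. The input came from universal all-10-mer Agilent arrays made double-stranded by primer extension and probed with GST-tagged yeast transcription factors at about 100-200 nM. Fluorescent anti-GST detected bound protein, and masliner normalised the scans.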

Row | Sequence | PBM E-score
1 | CAGACTTA | -0.253
2 | GCGACAAA | -0.0841
3 | ACACTGAA | 0.138
4 | ATCTCAAA | -0.0488
5 | GATATCAA | 0.0828
6 | GAACTGCA | 0.0004
7 | TGTGGCAA | 0.129
8 | GACTCCAA | 0.237
9 | CAAGACTA | -0.0514
10 | CATGGGAG | 0.045
11 | GCGGTAAA | 0.0603
12 | CCCGCCCG | 0.259
13 | ACCTCCCC | 0.0988
14 | ATACCTCC | 0.053
15 | ACGCTCCA | -0.0133
16 | TCTCCGAA | -0.151
17 | AACATACC | 0.11
18 | AGATTGAA | -0.143
19 | TCATACCA | 0.0387
20 | ACAGGATA | -0.0561
21 | AAGGCCGA | -0.115
22 | ACCTACGC | -0.244
23 | AGCTGACC | 0.116
24 | CGCGAACG | 0.0385
25 | GAATAGGC | -0.171

Row | Sequence | PBM E-score
26 | CGGCCTCC | -0.0282
27 | AAACGATC | -0.173
28 | AGGGCACA | 0.0279
29 | GATCCTCA | 0.0533
30 | AGCATGAT | 0.158
31 | GGGATCCC | -0.0726
32 | CAGTCTCA | 0.138
33 | ATGCCAGC | -0.237
34 | AGTAACAT | 0.169
35 | ATGGACGC | 0.0395
36 | AGACGTAG | -0.15
37 | ATAAACCA | -0.0222
38 | ATCGCCTC | 0.108
39 | ACTGCCGG | 0.052
40 | AAAGTATC | -0.0826
41 | GGGATGAA | -0.00977
42 | AAAACTTC | -0.34
43 | AGTGCTTC | -0.125
44 | GAAGGTGA | 0.104
45 | ACTACTGA | 0.191
46 | AGCATTAC | -0.126
47 | GAGGCATA | -0.0229
48 | CATTTCAA | -0.165
49 | GCTGGAAA | -0.141
50 | TGCCTGAA | -0.141

Row | Sequence | PBM E-score
51 | AATCTCCG | -0.0044
52 | AGGAATAG | -0.0681
53 | CTCGGCCC | -0.103
54 | ACTCACAG | 0.325
55 | CTCCGATC | -0.116
56 | CAGATTGA | 0.162
57 | CAATAGTG | 0.0794
58 | GGTGGAGA | -0.0143
59 | CTGGTGAC | 0.162
60 | GGAAAGCA | -0.0895
61 | CGACTTAA | -0.336
62 | CGAACTGC | -0.0468
63 | GGCAATAA | -0.0658
64 | CTCCTGCC | 0.0202
65 | AGAAACTG | -0.169
66 | TGTCGAAA | -0.0195
67 | AGTAAGGG | -0.0311
68 | ATCTAGTG | -0.0252
69 | CATCCGTA | 0.0236
70 | GAGCACCA | -0.00305
71 | CACACGTG | 0.182
72 | CCGCCAAG | -0.0739
73 | CGCCTGGC | 0.111
74 | ACAAGACG | -0.0317
75 | AGGGGTGG | 0.256

Row | Sequence | PBM E-score
76 | GATCAAGC | 0.00723
77 | CAAGACTG | -0.0294
78 | ACAAATCT | -0.0797
79 | ATACCATG | 0.153
80 | AGGAATAA | -0.0851
81 | CCGATTTA | -0.23
82 | ACCTAAGA | -0.114
83 | ATTGGAAG | -0.109
84 | GCACAATA | -0.026
85 | GATGCGAA | -0.063
86 | ATGTATCC | 0.194
87 | ACCCTGCC | -0.0602
88 | GGCTCGCA | 0.163
89 | CCCAGAAA | -0.0201
90 | GGGCAAAC | 0.0298
91 | TAGCCGGA | 0.128
92 | ACGTGTGG | -0.0756
93 | CTCGGCAC | 0.0297
94 | CGTTCTGC | -0.0287
95 | ACCAAGCC | -0.00713
96 | AGTTGTGG | 0.159
97 | AAGGCTAC | -0.186
98 | CCAAGCTA | -0.128
99 | AAATAGAG | -0.141
100 | CGGGAACA | 0.0918

Row | Sequence | PBM E-score
101 | AACGACAG | 0.0106
102 | GACGCCAA | -0.109
103 | GAAGAGTA | -0.059
104 | AAACCGCT | -0.135
105 | ACATGGTC | 0.165
106 | CCTGAGCC | 0.115
107 | AGTTTAAT | -0.108
108 | TCTTGGCA | -0.054
109 | AATCTAAG | -0.257
110 | AAACGAGC | -0.126
111 | ACACGTCT | 0.0135
112 | ATTCACCA | 0.0408
113 | CTTGTACA | -0.273
114 | CTACACCA | -0.0652
115 | CCAACATC | 0.175
116 | AGCATATC | 0.21
117 | GCGTTTGA | -0.199
118 | AATATTGT | 0.0702
119 | AATCTAAC | -0.114
120 | TAACCATA | 0.103
121 | ACTACGTA | 0.161
122 | CCCATCTA | 0.0186
123 | ACACCATA | 0.164
124 | ATGATCCA | 0.13
125 | GTAGATGA | 0.232

Row | Sequence | PBM E-score
126 | TGGATCCA | -0.0454
127 | GGCGAAAC | -0.0234
128 | ATTTGCGC | -0.0712
129 | GATCCCAC | 0.0999
130 | AATCTTAG | -0.116
131 | AGTGTTAT | -0.0408
132 | AAAGAGGG | -0.222
133 | AGCGCTAC | -0.194
134 | CTGCCATA | 0.215
135 | CATTCGTC | 0.122
136 | GGTTGGCA | -0.0149
137 | CTAAGTCA | 0.12
138 | CTACGTGA | -0.18
139 | CCCAACTA | 0.0273
140 | CCCGAGAG | -0.132
141 | AATTCGCC | -0.0371
142 | ATAGCTGC | 0.107
143 | GCGGGCAA | 0.121
144 | CGAAAACC | -0.164
145 | AATATTAT | 0.16
146 | CGTTAACC | -0.0242
147 | GACTGAAA | 0.0643
148 | AGCCATCA | 0.213
149 | GAGAAAGA | -0.167
150 | TCTAGGAA | -0.167

Row | Sequence | PBM E-score
151 | TGACTACA | 0.359
152 | AACCATAC | 0.139
153 | CAACTGCG | 0.00524
154 | CTCCCTCC | -0.068
155 | GAGCAAAA | -0.314
156 | CACTACGC | -0.0987
157 | ATCCAGGA | -0.0709
158 | AGATACTA | 0.0545
159 | AGGCCCTA | -0.311
160 | GAACAGCC | -0.0982
161 | ACATTCGG | 0.137
162 | CACTTGGA | 0.0348
163 | AGAGTCAC | 0.43
164 | ACTAGTAA | 0.0386
165 | CAGGTAGG | -0.122
166 | CAGGCGGC | 0.0327
167 | CATATCGA | 0.292
168 | GGTTGGGA | 0.0699
169 | CTCAACAC | 0.0674
170 | CGGCTTGC | 0.122
171 | AACACAGC | 0.229
172 | ATCTATAC | 0.16
